From ChEMBL document CHEMBL4888484, “Replenishing the malaria drug discovery pipeline: Screening and hit evaluation of the MMV Hit Generation Library 1 (HGL1) against asexual blood stage Plasmodium falciparum ,using a nano luciferase reporter read-out” (2022)
In all, about 4,800 compounds went through this assay and about 420 (8.8%) showed an effect of 50% or more. This is one part of the list.

test system: Plasmodium falciparum; assay: Confirmatory screen in NF54 nanoGlo assay, in single point, at 2uM, 72h; assay type: functional, Erythrocyte; details: timepoint 72 hour

SMILES | % Inhibition
CCn1ccnc1C(=O)Nc1ccc(OC)nc1 | -6%
COc1ccc(-n2nc(C)c(Cc3ccc(Cl)cc3)c2O)cc1 | 0%
CC[N+](C)(CC)CCOc1cc(C)c2ccccc2n1 | 53%
CCn1ncc(CN2CC[C@@H]3C(=O)NCCCCCCN(Cc4ccncc4)[C@@H]3C2)c1C | 31%
Cn1ccnc1CCNC(=O)C(=O)Nc1cc(F)c(F)c(F)c1 | -4%
CCn1nccc1CN(C)C(=O)c1cc(S(=O)(=O)N(C)C)c(Cl)cc1Cl | -17%
Cc1ccc(NC(=O)Cn2c(C)cc(=O)c3sccc32)cc1Cl | -5%
CCOC(=O)N1CCN(C(=O)C2[C@H]3C(=O)N(c4ccc(OC)cc4)C[C@]34C=C[C@H]2O4)CC1 (stereo not given in full) | 4%
CCOc1cccc(-c2ccc3nc(-c4cccc(OC)c4)c(CCC(=O)NCCN4CCCC4)n3c2)c1 | 61%
O=C(O)c1cc(-c2ccc3c(c2)OCCO3)nc2c(Br)cc(Br)cc12 | -5%
COc1ccc(-c2nn3c([C@H]4CCCN(C)C4)nnc3s2)cc1Cl | -7%
COC(=O)C[C@H](CC(C)C)c1c(O)n[nH]c1C | -12%
Cc1cn(Cc2ncc(C(F)(F)F)cc2Cl)c(=O)[nH]c1=O | -6%
O=C(NCCc1cc(F)cc(F)c1)C1CC2CCC1C2 (stereo not given) | 0%
Cc1ccc(-c2ccnn2C)cc1NC(=O)[C@H]1CCCOC1 | -3%
O=C(CN1CCOCC1)N1CCN(CCCOc2ccccc2)CC1 | 19%
C[C@](O)(C(=O)NCC(=O)NC1CCCC1)c1ccc(F)cc1 | 2%
O=C(Cc1ccc2oc(-c3cccnc3)nc2c1)N1CCN(c2cccc(C(F)(F)F)c2)CC1 | -6%
N#Cc1cccc(CNc2ccc3c(c2)CCC(=O)N3)c1 | -7%
CN1CCCN(c2ccc(NC(=O)c3cccc(Cl)c3)c(C(=O)O)c2)CC1 | -5%
Cc1[nH]c2ncnc(NC(=O)c3cccc(-n4ccnn4)c3)c2c1C | 46%
COc1ccc(-[n+]2c(-c3ccc(-c4ccccc4)cc3)cn3c2COCC3)cc1 | 66%

SMILES | % Inhibition
Cc1ccc(C(=O)Nc2c(C(N)=O)sc3nc(C(F)F)cc(C4CC4)c23)cc1 | -16%
Cc1nc(CN2C(=O)C(=O)c3cc(Br)ccc32)cs1 | -2%
Cc1ccc(N2CCCC2)c(C(=O)N2CCN(Cc3c(C)nc4cc(C)ccn34)CC2)c1 | 3%
Cc1ccc(N2C[C@@H](c3nnc(N)o3)CC2=O)cc1 | 6%
Cc1[nH]c2nc3ccccc3n2c(=O)c1Cc1ccccc1Cl | -9%
CN(Cc1ccc(F)cn1)c1ccn(C)n1 | -6%
COc1cc(OC)cc(N2CCN(C(=O)c3cccc(F)c3)[C@@H](C)C2=O)c1 | -11%
Clc1cccc(-c2c[nH]c([C@@H]3COCCN3C3CCOCC3)n2)c1 | -9%
N#Cc1cc(C(=O)N[C@H]2CCCOCC2)ccn1 | 7%
Cn1ncc(Br)c1C(=O)N1CCc2ccccc2C1 | 4%
COc1ccc(-c2nccn3cc(C(=O)N4CCCCCC4)nc23)cc1 | 0%
Cc1c(NS(=O)(=O)c2ccc(Cl)cc2)c(-n2cnnc2)nn1C | -7%
C[C@H](Oc1ccccc1)C(=O)N1CCC(c2nc(-c3ccc4c(c3)OCO4)no2)CC1 | 6%
CN1CCN(C2(CNc3ccnc4ccccc34)CCCC2)CC1 | 91%
Cc1nc(-c2ccc(NCc3cc4ccccc4o3)nc2)[nH]c(=O)c1C | -10%
CC(C)c1nn(C)cc1NS(=O)(=O)CCCC(F)(F)F | 2%
Fc1ccc(-n2ncc3c(N4CCC[C@H]4c4cccs4)ncnc32)cc1 | -2%
N#CC(c1ccc(Cl)cc1)N1N=C(c2ccccc2)CC1c1ccccc1 (stereo not given) | 4%
C[C@H](N)c1ccc(Nc2ncc3cc(-c4ccncc4)ccc3n2)cc1 | 93%
CC(C)(C)c1cc(NC(=O)c2ccccc2F)n([C@H]2CCS(=O)(=O)C2)n1 | -12%
O=C(O)C1C2CC2CN1C(=O)c1ccc(Cl)cc1Cl (stereo not given) | -15%
c1cncc(OCc2cnc3ccccn23)c1 | -10%

SMILES | % Inhibition
Cc1ccc(-c2noc(CCC(=O)NC3CCCCC3)n2)c(=O)n1C(C)C | -6%
OCCN(Cc1nc2ccccc2o1)c1ccc(Br)cc1 | -1%
Cc1cccc(NC(=O)c2c(C)sc3ncnc(N4CCCCC4)c23)c1 | 3%
Cc1nn(Cc2ccccc2)c2c1C(c1cccc(Cl)c1Cl)c1c(C)nn(Cc3ccccc3)c1O2 | 9%
O=C(c1ccccc1)c1ccc(O)c(CN2CCCN(c3ccc(C(F)(F)F)cn3)CC2)c1O | 79%
CC(C)(C)OC(=O)NS(=O)(=O)Nc1nccs1 | -13%
Cc1cc(=O)[nH]c(-n2nc(C3CC3)cc2NC(=O)C(c2ccccc2)c2ccccc2)n1 | 91%
N#Cc1cccc(CNC2CCCCCC2C(N)=O)c1 (stereo not given) | -5%
Oc1ccccc1-c1cnc(C(F)(F)F)s1 | 94%
CC(C)CN1C(=O)[C@H](Cc2ccccc2)NC12CCN(C(=O)c1ccc(Cl)cc1)CC2 | 14%
COc1ccc(-c2cc(C(F)(F)F)nc(-n3nc(-c4cccc(OC)c4)c(Cl)c3-c3cccc(OC)c3)n2)cc1 | 84%
O=C(Nc1ccccc1N1CCCC1)[C@@H]1Cc2ccccc2O1 | -5%
Cc1cc(NC(=O)[C@H](C)OC(=O)c2ccc3c(c2)OCC(=O)N3)on1 | -9%
Cc1cc(C)n(-c2ccc(N3CC4CCC3C4)nc2)n1 (stereo not given) | -8%
CCn1cc2c(C(F)F)cc(=O)n(CCC(=O)NCc3ccc(F)cc3)c2n1 | -6%
O=C(NCCOc1ccccc1)N1CCN(S(=O)(=O)c2cccc(F)c2)CC1 | 2%
Cc1nn(CCC(=O)NC2CCCC2)cc1Br | -10%
CC(C)(C)c1nc(CNc2ccc(S(=O)(=O)CCO)cc2)no1 | -9%
Cc1cc(Br)ccc1CNC(=O)CN1CCCCC1=O | 2%
CC(C)(C)N(CC(N)=O)CC(=O)NC(=O)NC1CCCCC1 | 5%
CC(=Cc1cn(C(C)(C)C)nn1)c1nc(C)c(C#N)c(=O)[nH]1 | 0%
